Measured values taken from PubChem BioAssay AID651820 (National Center for Advancing Translational Sciences (NCATS), 2012).
The whole screen tested about 340,000 compounds, of which about 12,000 (3.5%) were called active. The shares of active, inactive and inconclusive entries below differ from those in the screen. The call rests on the fitted dose curve; in most records, active means well fitted inhibition curve with a large enough effect; inconclusive means small, poorly fitted or top-dose-only effect, or another doubt; inactive means no such curve, though single readings can be large or run the other way. No potency is given beside an inconclusive call; the fits are too rough.

Assay: qHTS Assay for Inhibitors of Hepatitis C Virus (HCV)
Conditions: Huh7.5.1 HCVcc-Cre (HCVcc is cell-culture hepatitis C virus) infection, luciferase reporter, 44 h; activity change, negative = inhibition: at 41.8 µM (top of the series) unless noted
Procedure, shortened: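 Cells (1,000/well) were plated 4 h before compound, then infected with HCVcc-Cre virus (~0.5 moi). After 44 h further culture, infection was read as luciferase luminescence following a 15 min substrate incubation at room temperature.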
On the % scale 0 is the no-effect control and ±100 the full control effect; potency means the concentration at half of the fitted maximal effect; tags describe the fitted curve by direction and shape.

Row | Compound | Potency | activity change, negative = inhibition
1 | CN(C)C(CNC(=O)C1CCN(S(=O)(=O)c2cc(Cl)ccc2Cl)CC1)Cc1ccccc1 (stereo unspecified) | inconclusive [inhibitor, single point] | 
2 | COCCN(CC(=O)Nc1cccc(C)c1C)C(=O)c1cc(-c2cccs2)nn1-c1ccccc1 | inconclusive [inhibitor, partial curve] | 
3 | COc1ccccc1Nc1nnc(SCC2CCCCO2)s1 (stereo unspecified) | active: 7.94 µM | 
4 | COC(=O)c1ccc(CCc2cc(O)c(Br)cc2O)cc1 | inconclusive [inhibitor, single point] | 
5 | O=C(Nc1ccc(S(=O)(=O)N2CCCC2)cc1)c1cccc(OC(F)F)c1 | inconclusive [inhibitor, partial curve] | 
6 | O=C(c1ccc([N+](=O)[O-])cc1)N1CCOC12CCN(c1ncc(C(F)(F)F)cc1Cl)CC2 |  | inactive: 6.64%
7 | CCN(c1ccccc1)S(=O)(=O)c1ccc(C(=O)NCC(c2ccccc2OC)N2CCCC2)cc1 (stereo unspecified) | active: 25.1 µM | 
8 | Cc1cc(Br)c(NC(=O)CN(C)CCOc2ccccc2)c(Br)c1 | inconclusive [inhibitor, single point] | 
9 | Cc1cc(C)c(CN2CCN(C(=O)Cn3ccc(NC(=O)OCc4ccccc4)nc3=O)CC2)c(C)c1 | active: 4.47 µM | 
10 | Cc1ccc(S(=O)(=O)N2CCOCC2)cc1C(=O)OCC(=O)c1ccc(Br)cc1 |  | inactive: 8.26%
11 | CCc1c(C)sc(NC(=O)C2CC2c2ccccc2)c1C(N)=O (stereo unspecified) | inconclusive [inhibitor, single point] | 
12 | CC(/C=N/NC(=O)c1nnn(-c2nonc2N)c1CN1CCCCC1)=C\c1ccccc1 |  | inactive: -12%
13 | CSCCC1NC2(C(=O)Nc3c2ccc(Cl)c3C)[C@@H]2C(=O)N(C3CCCC3)C(=O)[C@H]12 (stereo partly specified) |  | inactive: -4.04%
14 | C=CCn1cc(C(=O)NCCCN(CC)CC)c(=O)c2cc(S(=O)(=O)N3CCC(C)CC3)ccc21 |  | inactive: -1.65%
15 | Cc1ccccc1OCC(=O)Nc1ccc2c(c1)Cc1ccccc1-2 |  | inactive: 16.4%
16 | COc1cccc2c(=O)cc(C)n(CC(=O)Nc3cccc(C)c3)c12 | active: 8.91 µM | 
17 | C=CCn1c(SCC(=O)c2cccs2)nc2sc(C)c(C)c2c1=O | inconclusive [inhibitor, single point] | 
18 | CCc1nccn1CCC(=O)N1CCCC(N2CCN(c3cccc(Cl)c3)CC2)C1 (stereo unspecified) | inconclusive [inhibitor, single point] | 
19 | Cc1c(C(=O)NCC(c2ccco2)N2CCCC2)oc2ccc(Cl)cc12 (stereo unspecified) | inconclusive [inhibitor, single point] | 
20 | CCCC(=O)Nc1ccc(C(=O)N/N=C/c2ccc[nH]2)cc1 | inconclusive [inhibitor, full curve] | 
21 | Cc1cc(C(=O)Nc2cccc(C)c2C)c2ccccc2n1 |  | inactive: -5.4%
22 | Cc1ccc(S(=O)(=O)N2CCN(Cc3nc4sc5c(c4c(=O)[nH]3)CCCC5)CC2)cc1 | inconclusive [inhibitor, single point] | 
23 | Cc1ccc(-c2nc3ccc(Cl)cc3n2OC(C)C(=O)O)cc1 (stereo unspecified) |  | inactive: 1.76%
24 | C=CC(=O)NCCCc1cc(C(C)(C)C)c(O)c(C(C)(C)C)c1 | inconclusive [inhibitor, partial curve] | 

Row | Compound | Potency | activity change, negative = inhibition
25 | CCOC(=O)C1(Cc2ccccc2C(F)(F)F)CCN(C(C)CCn2cccn2)CC1 (stereo unspecified) | inconclusive [inhibitor, single point] | 
26 | CCc1ccc(NC(=O)CCc2ccc(C)o2)cc1 | inconclusive [inhibitor, partial curve] | 
27 | COc1ccc(N2CCN(CCCNC(=O)C(=O)c3c[nH]c4ccccc34)CC2)cc1 | inconclusive [inhibitor, partial curve, poor fit] | 
28 | O=[N+]([O-])c1ccc(/C=N/Nc2ccnc3cc(Cl)ccc23)o1 | inconclusive [inhibitor, single point] | 
29 | CC(=O)c1cc(CN2CCC(C(=O)Nc3cccc(-c4cscn4)c3)CC2)cs1 | active: 10 µM | 
30 | N#Cc1cn(CC(=O)NCCc2c[nH]c3ccccc23)c2ccccc12 |  | inactive: -8.22%
31 | Cc1nc2ccc(NC(=O)c3cccc(S(=O)(=O)N(C)c4ccccc4)c3)cc2s1 | active: 10 µM | 
32 | COc1cccc(C2c3[nH]c4ccccc4c3CCN2Cc2cnc(C)s2)c1OC (stereo unspecified) |  | inactive: -29.5%
33 | O=C(Nc1ccccc1C(=O)N1CCCC1)c1ncoc1-c1cccc(Cl)c1 |  | inactive: 5.61%
34 | N=c1c(S(=O)(=O)c2ccccc2)cc2c(=O)n3ccccc3nc2n1Cc1ccco1 | inconclusive [inhibitor, partial curve] | 
35 | Cc1cccc(C)c1NC(=O)NC1(C(=O)NCCN2CCOCC2)CCCCC1 |  | inactive: 8.97%
36 | Cc1cc(C)cc(SCc2noc(C(=O)NCCCN3CCOCC3)c2C(=O)NCCCN2CCOCC2)c1 | active: 1 µM | 
37 | COc1ccc(C(=O)COc2ccccc2C#N)cc1 | inconclusive [inhibitor, single point] | 
38 | C/C(=N\NC(=O)c1cccc(F)c1)c1ccc(NC(=O)Cc2ccccc2)cc1 |  | inactive: -23.1%
39 | CCN(CC)CCNC(=O)c1ccc(NC(=O)c2ccc3c(c2)CCC3)cc1 | active: 11.2 µM | 
40 | C/C(=N\NC(=O)c1nc2ccccn2c1C)c1ccc2c(c1)OCO2 |  | inactive: -6.13%
41 | N#CC1=C(N)NC(=S)C(C(N)=O)C1c1ccc([N+](=O)[O-])cc1 (stereo unspecified) | inconclusive [inhibitor, single point] | 
42 | CCOC(=O)N/N=C/c1ccc(OCCSc2ccc(Cl)cc2)c(OC)c1 | inconclusive [inhibitor, single point] | 
43 | Cc1nn(-c2ccccc2)c(C)c1/C=N/NC(=O)c1cc(-c2cccs2)[nH]n1 | inconclusive [inhibitor, partial curve] | 
44 | Cc1ccc(Cn2c(SCC(=O)Nc3cc(C)on3)nc3ccccc3c2=O)cc1 | inconclusive [inhibitor, single point] | 
45 | CC(C)c1onc(C(=O)N2CCN(C(c3ccccc3)c3ccccc3)CC2)c1[N+](=O)[O-] | inconclusive [inhibitor, single point] | 
46 | O=S(=O)(Nc1ccc(Cl)cc1NS(=O)(=O)c1ccccc1)c1ccccc1 | active: 0.501 µM | 
47 | C=CCN1C(=O)N(/C=C/C)c2cccc3cccc1c23 | inconclusive [inhibitor, partial curve] | 
48 | Cc1oc(-c2ccccc2F)nc1CS(=O)CC(=O)NCc1ccc(Cl)cc1 (stereo unspecified) |  | inactive: -4.15%

Row | Compound | Potency | activity change, negative = inhibition
49 | CN(CC1CCCO1)S(=O)(=O)c1ccc(C(=O)Nc2nnc(-c3ccccc3)o2)cc1 (stereo unspecified) | inconclusive [inhibitor, single point] | 
50 | O=C(CN1CCc2ccccc2C1)Nc1cccc(S(=O)(=O)N2CCOCC2)c1 | inconclusive [inhibitor, single point] | 
51 | CC(C)(C)c1ccc(C(=O)NCc2nnc(SCC(=O)NCC3CCCO3)o2)cc1 (stereo unspecified) |  | inactive: 18.8%
52 | Cc1ccc2c(CC(=O)Nc3ccc(F)c(S(=O)(=O)N4CCOCC4)c3)coc2c1 | inconclusive [inhibitor, partial curve] | 
53 | C=CC[C@@H](CC(=O)N(CCO)Cc1ccccc1)C(=O)N[C@H](COC(=O)[C@@H](CC=C)Cc1ccc(F)cc1)c1ccccc1 | active: 11.2 µM | 
54 | CCOC(=O)c1[nH]c2ccccc2c1CCCN1C(=O)c2ccccc2C1=O | inconclusive [inhibitor, partial curve] | 
55 | O=C(NC(=S)NNC(=O)c1ccccc1O)c1cccs1 | active: 8.91 µM | 
56 | CCN(CC)C(=O)CSc1nnc(CCN)o1 | inconclusive [inhibitor, single point] | 
57 | COc1cc(/C=C/C(=O)c2ccc(Cl)s2)cc(OC)c1O | active: 12.6 µM | 
58 | C(=N\Nc1nc2ccccc2[nH]1)/c1ccccn1 |  | inactive: -1.59%
59 | CCn1c(=O)cc(SCC(=O)Nc2ccc3c(c2)OCO3)c2ccccc21 | inconclusive [inhibitor, single point] | 
60 | CSc1nc(N)nc2c1ncn2CC(=O)NCc1ccccc1 | inconclusive [inhibitor, partial curve] | 
61 | Cc1ccc(Nc2nc(NCCCN3CCOCC3)nc(N)c2[N+](=O)[O-])cc1C |  | inactive: 6.34%
62 | OCCCNc1ncnc2sc3c(c12)CCN(Cc1ccccc1)C3 | inconclusive [inhibitor, partial curve] | 
63 | O=C(NC(Cc1ccccc1)C(=O)N1CCCC(C(F)(F)F)C1)c1ccccc1 (stereo unspecified) | inconclusive [inhibitor, full curve] | 
64 | CCc1nc(NCCC(C)C)c2nnn(Cc3ccccc3)c2n1 | inconclusive [inhibitor, single point] | 
65 | CC1CCC(NC(=O)c2ccc(NC3=NC4CS(=O)(=O)CC4S3)cc2)CC1 (stereo unspecified) |  | inactive: 11.5%
66 | O=C(CSc1nc2ccccc2s1)N1CCCCC1 |  | inactive: -3.97%
67 | Cc1cc(-n2c(C)cc(C(=O)COc3ccc(F)c(F)c3)c2C)no1 | active: 10 µM | 
68 | Cc1ccc(C)c(NC(=O)c2cc(-c3cc(C)ccc3O)n[nH]2)c1 |  | inactive: 1.85%
69 | Cc1ccc(NC(=O)CN2C(=O)NC3(CCCCC3C)C2=O)cc1S(=O)(=O)N1CCCCC1 (stereo unspecified) | inconclusive [inhibitor, single point] | 
70 | NC(=O)CC(NC(=O)Cc1cccc2ccccc12)c1ccc(NCc2ccc(F)c(F)c2)c([N+](=O)[O-])c1 (stereo unspecified) | inconclusive [inhibitor, single point] | 
71 | C=CCn1c(=O)c(C(=O)NCc2ccc3c(c2)OCO3)c(O)c2cc(OC)c(OC)cc21 | inconclusive [inhibitor, partial curve] | 
